Results reported in publication PMC10784301.
No constants are given. Whether binding was seen depends on the method and setting. In cells and extracts the contact can be indirect. Some results given as binding are weak or reduced against the parent protein; the word gives no strength. Sequences can lack the tags named with a protein.

Experiments:
HA-TOX4 [1] = target: T1, HA-TOX4 (UniProt O94842); experiment: co-IP; HEK293T co-transfected with HA-TOX4 and Flag-TRIM65, MG132 10 uM 4 h before harvest; lysates with specific antibodies and Protein A/G, immunoblot
T1 sequence: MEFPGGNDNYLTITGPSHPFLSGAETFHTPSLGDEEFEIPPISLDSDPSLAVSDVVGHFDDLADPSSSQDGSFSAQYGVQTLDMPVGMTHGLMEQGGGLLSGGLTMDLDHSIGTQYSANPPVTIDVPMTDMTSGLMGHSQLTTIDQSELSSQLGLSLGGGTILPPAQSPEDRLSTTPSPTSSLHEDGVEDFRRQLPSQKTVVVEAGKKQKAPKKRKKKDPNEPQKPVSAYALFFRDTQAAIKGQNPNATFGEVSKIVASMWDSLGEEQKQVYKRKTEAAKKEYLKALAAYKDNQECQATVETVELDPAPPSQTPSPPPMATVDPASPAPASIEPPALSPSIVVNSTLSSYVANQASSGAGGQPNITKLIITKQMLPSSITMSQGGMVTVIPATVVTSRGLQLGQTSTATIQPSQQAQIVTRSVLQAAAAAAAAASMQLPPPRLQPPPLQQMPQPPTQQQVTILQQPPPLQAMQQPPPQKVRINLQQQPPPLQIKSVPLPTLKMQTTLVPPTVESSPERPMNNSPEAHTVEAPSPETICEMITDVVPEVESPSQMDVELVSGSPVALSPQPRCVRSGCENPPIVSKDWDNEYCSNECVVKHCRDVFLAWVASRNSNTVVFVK

[2] = target: T2, Recombinant GST-TRIM65 protein (UniProt Q6PJ69); experiment: pull-down; GST or GST-TRIM65 with whole-cell lysates of transfected HEK293T cells, 50 mM Tris-HCl pH 7.5, 150 mM NaCl, 1% Triton, 4 °C overnight; glutathione Sepharose, immunoblot; only the target purified
T2 sequence: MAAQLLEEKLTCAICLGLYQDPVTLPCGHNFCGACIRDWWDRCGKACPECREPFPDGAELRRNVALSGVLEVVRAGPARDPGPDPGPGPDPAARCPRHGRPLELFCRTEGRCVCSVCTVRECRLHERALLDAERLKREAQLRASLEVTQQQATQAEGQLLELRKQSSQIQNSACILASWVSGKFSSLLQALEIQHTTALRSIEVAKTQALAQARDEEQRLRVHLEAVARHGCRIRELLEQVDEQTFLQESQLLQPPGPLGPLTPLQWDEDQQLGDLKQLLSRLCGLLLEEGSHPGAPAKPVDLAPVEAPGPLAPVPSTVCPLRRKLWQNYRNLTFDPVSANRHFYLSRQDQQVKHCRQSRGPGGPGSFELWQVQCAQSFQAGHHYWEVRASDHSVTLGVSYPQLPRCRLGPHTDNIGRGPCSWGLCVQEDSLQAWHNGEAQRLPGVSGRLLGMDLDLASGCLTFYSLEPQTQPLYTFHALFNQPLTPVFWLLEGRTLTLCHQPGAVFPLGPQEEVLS

HA-TOX4 [3] = target: T1, HA-TOX4; experiment: co-IP; HEK293T transfected with GFP-TRIM65 full length or deletion mutants together with HA-TOX4, MG132; precipitated with HA antibody, blotted with HA or GFP antibody

| Binder | binding [2] | also measured |
| --- | --- | --- |
| Flag-TRIM65 (protein, UniProt Q6PJ69 1-517) MAAQLLEEKLTCAICLGLYQDPVTLPCGHNFCGACIRDWWDRCGKACPECREPFPDGAELRRNVALSGVLEVVRAGPARDPGPDPGPGPDPAARCPRHGRPLELFCRTEGRCVCSVCTVRECRLHERALLDAERLKREAQLRASLEVTQQQATQAEGQLLELRKQSSQIQNSACILASWVSGKFSSLLQALEIQHTTALRSIEVAKTQALAQARDEEQRLRVHLEAVARHGCRIRELLEQVDEQTFLQESQLLQPPGPLGPLTPLQWDEDQQLGDLKQLLSRLCGLLLEEGSHPGAPAKPVDLAPVEAPGPLAPVPSTVCPLRRKLWQNYRNLTFDPVSANRHFYLSRQDQQVKHCRQSRGPGGPGSFELWQVQCAQSFQAGHHYWEVRASDHSVTLGVSYPQLPRCRLGPHTDNIGRGPCSWGLCVQEDSLQAWHNGEAQRLPGVSGRLLGMDLDLASGCLTFYSLEPQTQPLYTFHALFNQPLTPVFWLLEGRTLTLCHQPGAVFPLGPQEEVLS |  | binding (HA-TOX4 [1]): binds |
| HA-TOX4 (protein, UniProt O94842 1-621) MEFPGGNDNYLTITGPSHPFLSGAETFHTPSLGDEEFEIPPISLDSDPSLAVSDVVGHFDDLADPSSSQDGSFSAQYGVQTLDMPVGMTHGLMEQGGGLLSGGLTMDLDHSIGTQYSANPPVTIDVPMTDMTSGLMGHSQLTTIDQSELSSQLGLSLGGGTILPPAQSPEDRLSTTPSPTSSLHEDGVEDFRRQLPSQKTVVVEAGKKQKAPKKRKKKDPNEPQKPVSAYALFFRDTQAAIKGQNPNATFGEVSKIVASMWDSLGEEQKQVYKRKTEAAKKEYLKALAAYKDNQECQATVETVELDPAPPSQTPSPPPMATVDPASPAPASIEPPALSPSIVVNSTLSSYVANQASSGAGGQPNITKLIITKQMLPSSITMSQGGMVTVIPATVVTSRGLQLGQTSTATIQPSQQAQIVTRSVLQAAAAAAAAASMQLPPPRLQPPPLQQMPQPPTQQQVTILQQPPPLQAMQQPPPQKVRINLQQQPPPLQIKSVPLPTLKMQTTLVPPTVESSPERPMNNSPEAHTVEAPSPETICEMITDVVPEVESPSQMDVELVSGSPVALSPQPRCVRSGCENPPIVSKDWDNEYCSNECVVKHCRDVFLAWVASRNSNTVVFVK | binds |  |
| TOX4 N-terminal domain (residues 1-300) fused with GFP (domain or fragment, UniProt O94842 1-300) MEFPGGNDNYLTITGPSHPFLSGAETFHTPSLGDEEFEIPPISLDSDPSLAVSDVVGHFDDLADPSSSQDGSFSAQYGVQTLDMPVGMTHGLMEQGGGLLSGGLTMDLDHSIGTQYSANPPVTIDVPMTDMTSGLMGHSQLTTIDQSELSSQLGLSLGGGTILPPAQSPEDRLSTTPSPTSSLHEDGVEDFRRQLPSQKTVVVEAGKKQKAPKKRKKKDPNEPQKPVSAYALFFRDTQAAIKGQNPNATFGEVSKIVASMWDSLGEEQKQVYKRKTEAAKKEYLKALAAYKDNQECQATV | binds |  |
| GFP-TRIM65 full length (protein, UniProt Q6PJ69 1-517) MAAQLLEEKLTCAICLGLYQDPVTLPCGHNFCGACIRDWWDRCGKACPECREPFPDGAELRRNVALSGVLEVVRAGPARDPGPDPGPGPDPAARCPRHGRPLELFCRTEGRCVCSVCTVRECRLHERALLDAERLKREAQLRASLEVTQQQATQAEGQLLELRKQSSQIQNSACILASWVSGKFSSLLQALEIQHTTALRSIEVAKTQALAQARDEEQRLRVHLEAVARHGCRIRELLEQVDEQTFLQESQLLQPPGPLGPLTPLQWDEDQQLGDLKQLLSRLCGLLLEEGSHPGAPAKPVDLAPVEAPGPLAPVPSTVCPLRRKLWQNYRNLTFDPVSANRHFYLSRQDQQVKHCRQSRGPGGPGSFELWQVQCAQSFQAGHHYWEVRASDHSVTLGVSYPQLPRCRLGPHTDNIGRGPCSWGLCVQEDSLQAWHNGEAQRLPGVSGRLLGMDLDLASGCLTFYSLEPQTQPLYTFHALFNQPLTPVFWLLEGRTLTLCHQPGAVFPLGPQEEVLS |  | binding (HA-TOX4 [3]): binds |
| TOX4 fragment (residues 301-540) fused with GFP (domain or fragment, UniProt O94842 301-540) ETVELDPAPPSQTPSPPPMATVDPASPAPASIEPPALSPSIVVNSTLSSYVANQASSGAGGQPNITKLIITKQMLPSSITMSQGGMVTVIPATVVTSRGLQLGQTSTATIQPSQQAQIVTRSVLQAAAAAAAAASMQLPPPRLQPPPLQQMPQPPTQQQVTILQQPPPLQAMQQPPPQKVRINLQQQPPPLQIKSVPLPTLKMQTTLVPPTVESSPERPMNNSPEAHTVEAPSPETICEM | no binding |  |
| TOX4 fragment (residues 223-540) fused with GFP (domain or fragment, UniProt O94842 223-540) PQKPVSAYALFFRDTQAAIKGQNPNATFGEVSKIVASMWDSLGEEQKQVYKRKTEAAKKEYLKALAAYKDNQECQATVETVELDPAPPSQTPSPPPMATVDPASPAPASIEPPALSPSIVVNSTLSSYVANQASSGAGGQPNITKLIITKQMLPSSITMSQGGMVTVIPATVVTSRGLQLGQTSTATIQPSQQAQIVTRSVLQAAAAAAAAASMQLPPPRLQPPPLQQMPQPPTQQQVTILQQPPPLQAMQQPPPQKVRINLQQQPPPLQIKSVPLPTLKMQTTLVPPTVESSPERPMNNSPEAHTVEAPSPETICEM | no binding |  |
| TOX4 fragment (residues 223-622) fused with GFP (domain or fragment, UniProt O94842 223-621) PQKPVSAYALFFRDTQAAIKGQNPNATFGEVSKIVASMWDSLGEEQKQVYKRKTEAAKKEYLKALAAYKDNQECQATVETVELDPAPPSQTPSPPPMATVDPASPAPASIEPPALSPSIVVNSTLSSYVANQASSGAGGQPNITKLIITKQMLPSSITMSQGGMVTVIPATVVTSRGLQLGQTSTATIQPSQQAQIVTRSVLQAAAAAAAAASMQLPPPRLQPPPLQQMPQPPTQQQVTILQQPPPLQAMQQPPPQKVRINLQQQPPPLQIKSVPLPTLKMQTTLVPPTVESSPERPMNNSPEAHTVEAPSPETICEMITDVVPEVESPSQMDVELVSGSPVALSPQPRCVRSGCENPPIVSKDWDNEYCSNECVVKHCRDVFLAWVASRNSNTVVFVK | no binding |  |
